Experimental data from PubChem BioAssay (NCI).
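Cultured in 96-well plates, cells were exposed to test compound for 48 hours across five concentrations. GI50: concentration for 50% inhibition of growth. Definition used: TGI = concentration required for complete inhibition of growth.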

System: NCI-H322M lung
Assay: NCI-60 cell line screen, 48 h

Row | SMILES | GI50 [µM] | TGI [µM]
1 | Cc1cc(C(F)(F)F)ccc1C(=O)Nc1sc2c(c1C#N)CCC(=O)C2 | 6.1 | > 100
2 | Cn1cc(-c2cc(N)n3nc(-c4c[nH]c5ccc(Br)cc45)cc3n2)c2cccnc21 | 2.12 | 6.97
